Source: patent US9018256B2, “Feed additive for animals of P-thymol, salt derivative or ester derivative thereof” (priority 2011, dated 2015)

Legend:
Chemy Valley ducks = assay: Growth promoting effect test on ducks; format: in vivo, duck; conditions: 100 ppm in feed, 1 to 46-day-old ducks
[1] = tested on: three-way cross weaned pigs; assay: Growth promoting effect test on weaned pigs; format: in vivo, pig; conditions: 100 ppm in feed, 30 days
[2] = tested on: Lingnan yellow big chicken; assay: Comparison of chicken growth promoting effects of p-thymol, thymol and carvacrol; format: in vivo; conditions: 100 ppm in feed, 1 to 21-day-old chickens
[3] = tested on: Lingnan yellow big chicken; conditions: 1 to 21-day-old chickens; for Total Feed Consumption / Total Weight Gain: 50 per group; for Relative Weight Gain Rate: control = 100
[4] = Changes in chicken complete formula feed during preservation (gas chromatography); conditions: placed for 2 months
[5] = tested on: 50-day-old healthy three-way cross pigs; assay: Growth promoting effect of p-thymol and salt or ester derivatives on 50-day-old pigs; conditions: 100 ppm in feed, 30 days; for Total Feed Consumption / Total Weight Gain: 20 per group; for Relative Weight Gain Rate: control = 100
[6] = Volatility comparison under reduced-pressure drying; conditions: 1 hour; for weight remained after reduced-pressure drying: initial weight 10.0 g

Cc1cc(O)ccc1C(C)C [p-thymol, 3-methyl-4-isopropyl-phenol]
Feed Conversion Rate (Chemy Valley ducks): 2.676
Survival Rate (Chemy Valley ducks): 100%
feed conversion rate reduced compared with the control group (Chemy Valley ducks): 0.112
relative weight gain rate improved compared with the control group (Chemy Valley ducks): 6.65%
Total Feed Consumption (Chemy Valley ducks; 100 per group): 943.6 kg
Total Weight Gain (Chemy Valley ducks; 100 per group): 352.6 kg
Relative Weight Gain Rate (Chemy Valley ducks; control = 100): 106.65%
Feed Conversion Rate [1]: 2.288
feed conversion rate reduced compared with the control group [1]: 0.133
relative weight gain rate improved compared with the control group [1]: 7.17%
Total Feed Consumption ([1]; 30 per group): 800.2 kg
Total Weight Gain ([1]; 30 per group): 349.8 kg
Relative Weight Gain Rate ([1]; control = 100): 107.17%
Average Weight Gain [2]: 344.6 g
Feed Conversion Rate [2]: 1.716
Survival Rate [2]: 100%
feed conversion rate reduced compared with the control group [2]: 0.066
relative weight gain rate improved compared with the control group [2]: 6.82%
Total Feed Consumption ([2]; 50 per group): 29.57 kg
Total Weight Gain ([2]; 50 per group): 17.23 kg
Relative Weight Gain Rate ([2]; control = 100): 106.82%
survival rate of each test group ([3]; 5-500 ppm in feed): 100%
Average Weight Gain ([3]; 5 ppm in feed): 330.4 g
Feed Conversion Rate ([3]; 5 ppm in feed): 1.776
Survival Rate ([3]; 5 ppm in feed): 100%
Total Feed Consumption ([3]; 5 ppm in feed): 29.33 kg
Total Weight Gain ([3]; 5 ppm in feed): 16.52 kg
Relative Weight Gain Rate ([3]; 5 ppm in feed): 101.32%
Average Weight Gain ([3]; 10 ppm in feed): 338.3 g
Feed Conversion Rate ([3]; 10 ppm in feed): 1.734
Survival Rate ([3]; 10 ppm in feed): 100%
Total Feed Consumption ([3]; 10 ppm in feed): 29.34 kg
Total Weight Gain ([3]; 10 ppm in feed): 16.92 kg
Relative Weight Gain Rate ([3]; 10 ppm in feed): 103.74%
Average Weight Gain ([3]; 20 ppm in feed): 341.3 g
Feed Conversion Rate ([3]; 20 ppm in feed): 1.718
Survival Rate ([3]; 20 ppm in feed): 100%
Total Feed Consumption ([3]; 20 ppm in feed): 29.33 kg
Total Weight Gain ([3]; 20 ppm in feed): 17.07 kg
Relative Weight Gain Rate ([3]; 20 ppm in feed): 104.66%
Average Weight Gain ([3]; 50 ppm in feed): 343.5 g
Feed Conversion Rate ([3]; 50 ppm in feed): 1.705
Survival Rate ([3]; 50 ppm in feed): 100%
Total Feed Consumption ([3]; 50 ppm in feed): 29.29 kg
Total Weight Gain ([3]; 50 ppm in feed): 17.18 kg
Relative Weight Gain Rate ([3]; 50 ppm in feed): 105.33%
Average Weight Gain ([3]; 100 ppm in feed): 348.3 g
Feed Conversion Rate ([3]; 100 ppm in feed): 1.681
Survival Rate ([3]; 100 ppm in feed): 100%
Total Feed Consumption ([3]; 100 ppm in feed): 29.28 kg
Total Weight Gain ([3]; 100 ppm in feed): 17.42 kg
Relative Weight Gain Rate ([3]; 100 ppm in feed): 106.81%
Average Weight Gain ([3]; 200 ppm in feed): 347.8 g
Feed Conversion Rate ([3]; 200 ppm in feed): 1.686
Survival Rate ([3]; 200 ppm in feed): 100%
Total Feed Consumption ([3]; 200 ppm in feed): 29.32 kg
Total Weight Gain ([3]; 200 ppm in feed): 17.39 kg
Relative Weight Gain Rate ([3]; 200 ppm in feed): 106.65%
Average Weight Gain ([3]; 500 ppm in feed): 350.2 g
Feed Conversion Rate ([3]; 500 ppm in feed): 1.671
Survival Rate ([3]; 500 ppm in feed): 100%
Total Feed Consumption ([3]; 500 ppm in feed): 29.26 kg
Total Weight Gain ([3]; 500 ppm in feed): 17.51 kg
Relative Weight Gain Rate ([3]; 500 ppm in feed): 107.39%
weight gain improved compared with the control group ([3]; over doses 5-500 ppm in feed): 1.32-7.39%
loss in complete formula feed [4]: less than 5%
Feed Conversion Rate [5]: 2.029
Survival Rate [5]: 100%
Total Feed Consumption [5]: 693.9 kg
Total Weight Gain [5]: 342.0 kg
Relative Weight Gain Rate [5]: 109.2%
weight remained after reduced-pressure drying ([6]; 50° C.): 9.84 g
weight remained after reduced-pressure drying ([6]; 70° C.): 8.86 g
weight remained after reduced-pressure drying ([6]; 90° C.): 6.34 g
volatilized part ([6]; reduced-pressure drying 70° C.): 11.4%
volatilized part ([6]; reduced-pressure drying 90° C.): 36.6%

Cc1cc([O-])ccc1C(C)C.[Na+] [p-thymol sodium]
Feed Conversion Rate [5]: 2.025
Survival Rate [5]: 100%
average weight gain improved compared with the control group [5]: 9.4%
feed conversation rate reduced compared with the control group [5]: 0.199
Total Feed Consumption [5]: 693.8 kg
Total Weight Gain [5]: 342.6 kg
Relative Weight Gain Rate [5]: 109.4%

Cc1cc(O)ccc1C(C)C.N [p-thymol ammonium]
Feed Conversion Rate [5]: 2.028
Survival Rate [5]: 100%
average weight gain improved compared with the control group [5]: 8.9%
feed conversation rate reduced compared with the control group [5]: 0.197
Total Feed Consumption [5]: 691.6 kg
Total Weight Gain [5]: 341.0 kg
Relative Weight Gain Rate [5]: 108.9%

Cc1ccc(C(C)C)c(O)c1 [thymol, 5-methyl-2-isopropyl-phenol]
Feed Conversion Rate [5]: 2.098
Survival Rate [5]: 100%
Total Feed Consumption [5]: 680.6 kg
Total Weight Gain [5]: 324.4 kg

Where two headings read alike, the source gives them in different places.
